± gives the standard deviation of the averaged measurements. Laboratory Escherichia coli strains with one amino-acid change in an essential protein, pooled on minimal glucose agar with carbenicillin or gentamicin at twice the control MIC (plus kanamycin and chloramphenicol for the plasmids), 48 h. Fold change of barcode share against drug-free plates; higher = less susceptible. Active = above 20 in both replicates (the paper's putatively resistant). '<' = one read or none on drug, '>' = one read or none on a drug-free plate. Shares are relative, so most strains fall below 1 when a few take over. Listed are strains with at least 15 reads on both drug-free plates, and hits; most hits rest on fewer reference reads. Replicate rank correlation about 0.5. Edits are read from barcodes.
Molecular target: Escherichia coli (laboratory strain)
Assay: barcode share on antibiotic plates over drug-free plates; higher = less susceptible
Procedure: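 A pool of E. coli strains, each edited to carry one amino-acid change in an essential protein, was grown for 48 h on minimal glucose agar with or without antibiotic; strain barcodes were sequenced; mean of two replicates.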

[1] = antibiotic: carbenicillin, 2× MIC (3.1 µg/mL)
[2] = antibiotic: gentamicin, 2× MIC (MIC 0.45 µg/mL)

Row | Protein | fold change of barcode share [1] | fold change of barcode share [2]
1 | psd V68A (protein) MLNSFKLSLQYILPKLWLTRLAGWGASKRAGWLTKLVIDLFVKYYKVDMKEAQKPDTASYRTFNEFFARPLRDEVRPIDTDPNVLVMPADGVISQLGKIEEDKILQAKGHNYSLEALLAGNYLMADLFRNGTFVTTYLSPRDYHRVHMPCNGILREMIYVPGDLFSVNHLTAQNVPNLFARNERVICLFDTEFGPMAQILVGATIVGSIETVWAGTITPPREGIIKRWTWPAGENDGSVALLKGQEMGRFKLGSTVINLFAPGKVNLVEQLESLSVTKIGQPLAVSTETFVTPDAEPAPLPAEEIEAEHDASPLVDDKKDQV | 0.307 ± 0.13 | < 0.00864
2 | psd V68W (protein) MLNSFKLSLQYILPKLWLTRLAGWGASKRAGWLTKLVIDLFVKYYKVDMKEAQKPDTASYRTFNEFFWRPLRDEVRPIDTDPNVLVMPADGVISQLGKIEEDKILQAKGHNYSLEALLAGNYLMADLFRNGTFVTTYLSPRDYHRVHMPCNGILREMIYVPGDLFSVNHLTAQNVPNLFARNERVICLFDTEFGPMAQILVGATIVGSIETVWAGTITPPREGIIKRWTWPAGENDGSVALLKGQEMGRFKLGSTVINLFAPGKVNLVEQLESLSVTKIGQPLAVSTETFVTPDAEPAPLPAEEIEAEHDASPLVDDKKDQV | 0.272 ± 0.086 | 0.0267 ± 0.013
3 | psd V68Q (protein) MLNSFKLSLQYILPKLWLTRLAGWGASKRAGWLTKLVIDLFVKYYKVDMKEAQKPDTASYRTFNEFFQRPLRDEVRPIDTDPNVLVMPADGVISQLGKIEEDKILQAKGHNYSLEALLAGNYLMADLFRNGTFVTTYLSPRDYHRVHMPCNGILREMIYVPGDLFSVNHLTAQNVPNLFARNERVICLFDTEFGPMAQILVGATIVGSIETVWAGTITPPREGIIKRWTWPAGENDGSVALLKGQEMGRFKLGSTVINLFAPGKVNLVEQLESLSVTKIGQPLAVSTETFVTPDAEPAPLPAEEIEAEHDASPLVDDKKDQV | 0.159 ± 0.041 | < 0.0089
4 | psd V68D (protein) MLNSFKLSLQYILPKLWLTRLAGWGASKRAGWLTKLVIDLFVKYYKVDMKEAQKPDTASYRTFNEFFDRPLRDEVRPIDTDPNVLVMPADGVISQLGKIEEDKILQAKGHNYSLEALLAGNYLMADLFRNGTFVTTYLSPRDYHRVHMPCNGILREMIYVPGDLFSVNHLTAQNVPNLFARNERVICLFDTEFGPMAQILVGATIVGSIETVWAGTITPPREGIIKRWTWPAGENDGSVALLKGQEMGRFKLGSTVINLFAPGKVNLVEQLESLSVTKIGQPLAVSTETFVTPDAEPAPLPAEEIEAEHDASPLVDDKKDQV | 0.214 ± 0.14 | < 0.0132
5 | psd V68P (protein) MLNSFKLSLQYILPKLWLTRLAGWGASKRAGWLTKLVIDLFVKYYKVDMKEAQKPDTASYRTFNEFFPRPLRDEVRPIDTDPNVLVMPADGVISQLGKIEEDKILQAKGHNYSLEALLAGNYLMADLFRNGTFVTTYLSPRDYHRVHMPCNGILREMIYVPGDLFSVNHLTAQNVPNLFARNERVICLFDTEFGPMAQILVGATIVGSIETVWAGTITPPREGIIKRWTWPAGENDGSVALLKGQEMGRFKLGSTVINLFAPGKVNLVEQLESLSVTKIGQPLAVSTETFVTPDAEPAPLPAEEIEAEHDASPLVDDKKDQV | 0.504 ± 0.034 | < 0.00621
6 | psd L71A (protein) MLNSFKLSLQYILPKLWLTRLAGWGASKRAGWLTKLVIDLFVKYYKVDMKEAQKPDTASYRTFNEFFVRPARDEVRPIDTDPNVLVMPADGVISQLGKIEEDKILQAKGHNYSLEALLAGNYLMADLFRNGTFVTTYLSPRDYHRVHMPCNGILREMIYVPGDLFSVNHLTAQNVPNLFARNERVICLFDTEFGPMAQILVGATIVGSIETVWAGTITPPREGIIKRWTWPAGENDGSVALLKGQEMGRFKLGSTVINLFAPGKVNLVEQLESLSVTKIGQPLAVSTETFVTPDAEPAPLPAEEIEAEHDASPLVDDKKDQV | 0.335 ± 0.065 | 0.00348 ± 0.0012
7 | psd L71W (protein) MLNSFKLSLQYILPKLWLTRLAGWGASKRAGWLTKLVIDLFVKYYKVDMKEAQKPDTASYRTFNEFFVRPWRDEVRPIDTDPNVLVMPADGVISQLGKIEEDKILQAKGHNYSLEALLAGNYLMADLFRNGTFVTTYLSPRDYHRVHMPCNGILREMIYVPGDLFSVNHLTAQNVPNLFARNERVICLFDTEFGPMAQILVGATIVGSIETVWAGTITPPREGIIKRWTWPAGENDGSVALLKGQEMGRFKLGSTVINLFAPGKVNLVEQLESLSVTKIGQPLAVSTETFVTPDAEPAPLPAEEIEAEHDASPLVDDKKDQV | 0.321 ± 0.046 | < 0.00412
8 | psd L71Q (protein) MLNSFKLSLQYILPKLWLTRLAGWGASKRAGWLTKLVIDLFVKYYKVDMKEAQKPDTASYRTFNEFFVRPQRDEVRPIDTDPNVLVMPADGVISQLGKIEEDKILQAKGHNYSLEALLAGNYLMADLFRNGTFVTTYLSPRDYHRVHMPCNGILREMIYVPGDLFSVNHLTAQNVPNLFARNERVICLFDTEFGPMAQILVGATIVGSIETVWAGTITPPREGIIKRWTWPAGENDGSVALLKGQEMGRFKLGSTVINLFAPGKVNLVEQLESLSVTKIGQPLAVSTETFVTPDAEPAPLPAEEIEAEHDASPLVDDKKDQV | 0.278 ± 0.12 | 0.00721 ± 0.00097
9 | psd L71D (protein) MLNSFKLSLQYILPKLWLTRLAGWGASKRAGWLTKLVIDLFVKYYKVDMKEAQKPDTASYRTFNEFFVRPDRDEVRPIDTDPNVLVMPADGVISQLGKIEEDKILQAKGHNYSLEALLAGNYLMADLFRNGTFVTTYLSPRDYHRVHMPCNGILREMIYVPGDLFSVNHLTAQNVPNLFARNERVICLFDTEFGPMAQILVGATIVGSIETVWAGTITPPREGIIKRWTWPAGENDGSVALLKGQEMGRFKLGSTVINLFAPGKVNLVEQLESLSVTKIGQPLAVSTETFVTPDAEPAPLPAEEIEAEHDASPLVDDKKDQV | 0.326 ± 0.052 | 0.0049 ± 0.00072
10 | psd L71P (protein) MLNSFKLSLQYILPKLWLTRLAGWGASKRAGWLTKLVIDLFVKYYKVDMKEAQKPDTASYRTFNEFFVRPPRDEVRPIDTDPNVLVMPADGVISQLGKIEEDKILQAKGHNYSLEALLAGNYLMADLFRNGTFVTTYLSPRDYHRVHMPCNGILREMIYVPGDLFSVNHLTAQNVPNLFARNERVICLFDTEFGPMAQILVGATIVGSIETVWAGTITPPREGIIKRWTWPAGENDGSVALLKGQEMGRFKLGSTVINLFAPGKVNLVEQLESLSVTKIGQPLAVSTETFVTPDAEPAPLPAEEIEAEHDASPLVDDKKDQV | 0.297 ± 0.041 | < 0.00391
11 | psd L85A (protein) MLNSFKLSLQYILPKLWLTRLAGWGASKRAGWLTKLVIDLFVKYYKVDMKEAQKPDTASYRTFNEFFVRPLRDEVRPIDTDPNVAVMPADGVISQLGKIEEDKILQAKGHNYSLEALLAGNYLMADLFRNGTFVTTYLSPRDYHRVHMPCNGILREMIYVPGDLFSVNHLTAQNVPNLFARNERVICLFDTEFGPMAQILVGATIVGSIETVWAGTITPPREGIIKRWTWPAGENDGSVALLKGQEMGRFKLGSTVINLFAPGKVNLVEQLESLSVTKIGQPLAVSTETFVTPDAEPAPLPAEEIEAEHDASPLVDDKKDQV | 0.387 ± 0.07 | 0.0028 ± 0.0011
12 | psd L85W (protein) MLNSFKLSLQYILPKLWLTRLAGWGASKRAGWLTKLVIDLFVKYYKVDMKEAQKPDTASYRTFNEFFVRPLRDEVRPIDTDPNVWVMPADGVISQLGKIEEDKILQAKGHNYSLEALLAGNYLMADLFRNGTFVTTYLSPRDYHRVHMPCNGILREMIYVPGDLFSVNHLTAQNVPNLFARNERVICLFDTEFGPMAQILVGATIVGSIETVWAGTITPPREGIIKRWTWPAGENDGSVALLKGQEMGRFKLGSTVINLFAPGKVNLVEQLESLSVTKIGQPLAVSTETFVTPDAEPAPLPAEEIEAEHDASPLVDDKKDQV | 0.252 ± 0.089 | 0.00598 ± 0.0035
13 | psd L85Q (protein) MLNSFKLSLQYILPKLWLTRLAGWGASKRAGWLTKLVIDLFVKYYKVDMKEAQKPDTASYRTFNEFFVRPLRDEVRPIDTDPNVQVMPADGVISQLGKIEEDKILQAKGHNYSLEALLAGNYLMADLFRNGTFVTTYLSPRDYHRVHMPCNGILREMIYVPGDLFSVNHLTAQNVPNLFARNERVICLFDTEFGPMAQILVGATIVGSIETVWAGTITPPREGIIKRWTWPAGENDGSVALLKGQEMGRFKLGSTVINLFAPGKVNLVEQLESLSVTKIGQPLAVSTETFVTPDAEPAPLPAEEIEAEHDASPLVDDKKDQV | 0.364 ± 0.025 | 0.0096 ± 0.0083
14 | psd L85P (protein) MLNSFKLSLQYILPKLWLTRLAGWGASKRAGWLTKLVIDLFVKYYKVDMKEAQKPDTASYRTFNEFFVRPLRDEVRPIDTDPNVPVMPADGVISQLGKIEEDKILQAKGHNYSLEALLAGNYLMADLFRNGTFVTTYLSPRDYHRVHMPCNGILREMIYVPGDLFSVNHLTAQNVPNLFARNERVICLFDTEFGPMAQILVGATIVGSIETVWAGTITPPREGIIKRWTWPAGENDGSVALLKGQEMGRFKLGSTVINLFAPGKVNLVEQLESLSVTKIGQPLAVSTETFVTPDAEPAPLPAEEIEAEHDASPLVDDKKDQV | 0.371 ± 0.08 | < 0.00337

From the supplement of paper PMC11876631
